# The supplement of paper PMC8728848
# This is one part of the list.
# Key:
# Experiment in all cases: glycan array binding signal (z-score within array); higher = stronger binding
# Details in all cases: glycan notation: IUPAC condensed, linker removed
# [1] = biological target: Neu5Ac(a2-3)Gal(b1-4)GlcNAc(b1-3)[Neu5Ac(a2-3)Gal(b1-4)GlcNAc(b1-6)]GalNAc
# Procedure, shortened: (§1)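 Arrays were curated from the Consortium for Functional Glycomics database, 3228 in total, and kept only where the protein sequence was available. Binding is expressed as a within-array Z-score. This score was averaged across arrays of the same protein sequence at different concentrations or buffers and across linkers, and negative values can be read as non-binding.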
# [2] = biological target: Neu5Ac(a2-3)Gal(b1-4)GlcNAc(b1-6)GalNAc
# Procedure, shortened: as §1
# [3] = biological target: Neu5Ac(a2-3)Gal(b1-4)GlcNAc(b1-6)[Gal(b1-3)]GalNAc
# Procedure, shortened: as §1
# [4] = biological target: Neu5Ac(a2-3)Gal(b1-4)GlcNAc(b1-6)[Neu5Ac(a2-3)Gal(b1-3)]GalNAc
# Procedure, shortened: as §1
# [5] = biological target: Neu5Ac(a2-3)Gal(b1-4)GlcNAc6S
# Procedure, shortened: as §1
# [6] = biological target: Neu5Ac(a2-3)Gal(b1-4)[Fuc(a1-3)]GlcNAc
# Procedure, shortened: as §1
# [7] = biological target: Neu5Ac(a2-3)Gal(b1-4)[Fuc(a1-3)]GlcNAc(b1-2)Man
# Procedure, shortened: as §1
# [8] = biological target: Neu5Ac(a2-3)Gal(b1-4)[Fuc(a1-3)]GlcNAc(b1-3)Gal
# Procedure, shortened: as §1
# [9] = biological target: Neu5Ac(a2-3)Gal(b1-4)[Fuc(a1-3)]GlcNAc(b1-3)Gal(b1-4)GlcNAc
# Procedure, shortened: as §1
# [10] = biological target: Neu5Ac(a2-3)Gal(b1-4)[Fuc(a1-3)]GlcNAc(b1-3)Gal(b1-4)[Fuc(a1-3)]GlcNAc(b1-3)Gal(b1-4)[Fuc(a1-3)]GlcNAc
# Procedure, shortened: as §1
# [11] = biological target: Neu5Ac(a2-3)Gal(b1-4)[Fuc(a1-3)]GlcNAc(b1-3)GalNAc
# Procedure, shortened: as §1
# [12] = biological target: Neu5Ac(a2-3)Gal(b1-4)[Fuc(a1-3)]GlcNAc(b1-6)[Gal(b1-3)]GalNAc
# Procedure, shortened: as §1
# [13] = biological target: Neu5Ac(a2-3)Gal(b1-4)[Fuc(a1-3)]GlcNAc(b1-6)[Neu5Ac(a2-3)Gal(b1-3)]GalNAc
# Procedure, shortened: as §1
# [14] = biological target: Neu5Ac(a2-3)Gal(b1-4)[Fuc(a1-3)]GlcNAc6S
# Procedure, shortened: as §1
# [15] = biological target: Neu5Ac(a2-3)Gal6S(b1-4)GlcNAc
# Procedure, shortened: as §1
# [16] = biological target: Neu5Ac(a2-3)Gal6S(b1-4)[Fuc(a1-3)]GlcNAc
# Procedure, shortened: as §1
# Neu5Ac(a2-3)GalNAc = biological target: Neu5Ac(a2-3)GalNAc
# Procedure, shortened: as §1
# [17] = biological target: Neu5Ac(a2-3)GalNAc(b1-4)GlcNAc
# Procedure, shortened: as §1
# [18] = biological target: Neu5Ac(a2-3)[GalNAc(b1-4)]Gal(b1-4)Glc
# Procedure, shortened: as §1
# [19] = biological target: Neu5Ac(a2-3)[GalNAc(b1-4)]Gal(b1-4)GlcNAc
# Procedure, shortened: as §1
# [20] = biological target: Neu5Ac(a2-3)[GalNAc(b1-4)]Gal(b1-4)GlcNAc(b1-3)GalNAc
# Procedure, shortened: as §1
# [21] = biological target: Neu5Ac(a2-3)[Neu5Ac(a2-6)]GalNAc
# Procedure, shortened: as §1
# Neu5Ac(a2-6)Gal = biological target: Neu5Ac(a2-6)Gal
# Procedure, shortened: as §1
# [22] = biological target: Neu5Ac(a2-6)Gal(b1-3)GlcNAc(b1-3)[Gal(b1-4)GlcNAc(b1-6)]Gal(b1-4)Glc
# Procedure, shortened: as §1
# Neu5Ac(a2-6)Gal(b1-4)Glc = biological target: Neu5Ac(a2-6)Gal(b1-4)Glc
# Procedure, shortened: as §1
# [23] = biological target: Neu5Ac(a2-6)Gal(b1-4)GlcNAc
# Procedure, shortened: as §1
# [24] = biological target: Neu5Ac(a2-6)Gal(b1-4)GlcNAc(b1-2)Man
# Procedure, shortened: as §1
# [25] = biological target: Neu5Ac(a2-6)Gal(b1-4)GlcNAc(b1-2)Man(a1-3)Man(b1-4)GlcNAc(b1-4)GlcNAc
# Procedure, shortened: as §1
# [26] = biological target: Neu5Ac(a2-6)Gal(b1-4)GlcNAc(b1-2)Man(a1-3)[Gal(b1-4)GlcNAc(b1-2)Man(a1-6)]Man(b1-4)GlcNAc(b1-4)GlcNAc
# Procedure, shortened: as §1
# [27] = biological target: Neu5Ac(a2-6)Gal(b1-4)GlcNAc(b1-2)Man(a1-3)[GlcNAc(b1-2)Man(a1-6)]Man(b1-4)GlcNAc(b1-4)GlcNAc
# Procedure, shortened: as §1
# [28] = biological target: Neu5Ac(a2-6)Gal(b1-4)GlcNAc(b1-2)Man(a1-3)[GlcNAc(b1-4)][Neu5Ac(a2-6)Gal(b1-4)GlcNAc(b1-2)Man(a1-6)]Man(b1-4)GlcNAc(b1-4)GlcNAc
# Procedure, shortened: as §1
# [29] = biological target: Neu5Ac(a2-6)Gal(b1-4)GlcNAc(b1-2)Man(a1-3)[Man(a1-6)]Man(b1-4)GlcNAc(b1-4)GlcNAc
# Procedure, shortened: as §1
# [30] = biological target: Neu5Ac(a2-6)Gal(b1-4)GlcNAc(b1-2)Man(a1-3)[Neu5Ac(a2-3)Gal(b1-4)GlcNAc(b1-2)Man(a1-6)]Man(b1-4)GlcNAc(b1-4)GlcNAc
# Procedure, shortened: as §1
# [31] = biological target: Neu5Ac(a2-6)Gal(b1-4)GlcNAc(b1-2)Man(a1-3)[Neu5Ac(a2-6)Gal(b1-4)GlcNAc(b1-2)Man(a1-6)]Man(b1-4)GlcNAc(b1-4)GlcNAc
# Procedure, shortened: as §1
# [32] = biological target: Neu5Ac(a2-6)Gal(b1-4)GlcNAc(b1-2)Man(a1-3)[Neu5Ac(a2-6)Gal(b1-4)GlcNAc(b1-2)Man(a1-6)]Man(b1-4)GlcNAc(b1-4)[Fuc(a1-6)]GlcNAc
# Procedure, shortened: as §1
# [33] = biological target: Neu5Ac(a2-6)Gal(b1-4)GlcNAc(b1-2)Man(a1-6)Man(b1-4)GlcNAc(b1-4)GlcNAc
# Procedure, shortened: as §1
# [34] = biological target: Neu5Ac(a2-6)Gal(b1-4)GlcNAc(b1-2)Man(a1-6)[Gal(b1-4)GlcNAc(b1-2)Man(a1-3)]Man(b1-4)GlcNAc(b1-4)GlcNAc
# Procedure, shortened: as §1
# [35] = biological target: Neu5Ac(a2-6)Gal(b1-4)GlcNAc(b1-2)Man(a1-6)[GlcNAc(b1-2)Man(a1-3)]Man(b1-4)GlcNAc(b1-4)GlcNAc
# Procedure, shortened: as §1
# [36] = biological target: Neu5Ac(a2-6)Gal(b1-4)GlcNAc(b1-2)Man(a1-6)[Man(a1-3)]Man(b1-4)GlcNAc(b1-4)GlcNAc
# Procedure, shortened: as §1
# [37] = biological target: Neu5Ac(a2-6)Gal(b1-4)GlcNAc(b1-2)[Neu5Ac(a2-6)Gal(b1-4)GlcNAc(b1-4)]Man(a1-3)[GlcNAc(b1-4)][Neu5Ac(a2-6)Gal(b1-4)GlcNAc(b1-2)[Neu5Ac(a2-6)Gal(b1-4)GlcNAc(b1-6)]Man(a1-6)]Man(b1-4)GlcNAc(b1-4)GlcNAc
# Procedure, shortened: as §1
# [38] = biological target: Neu5Ac(a2-6)Gal(b1-4)GlcNAc(b1-2)[Neu5Ac(a2-6)Gal(b1-4)GlcNAc(b1-4)]Man(a1-3)[GlcNAc(b1-4)][Neu5Ac(a2-6)Gal(b1-4)GlcNAc(b1-4)Man(a1-6)]Man(b1-4)GlcNAc(b1-4)GlcNAc
# Procedure, shortened: as §1
# [39] = biological target: Neu5Ac(a2-6)Gal(b1-4)GlcNAc(b1-2)[Neu5Ac(a2-6)Gal(b1-4)GlcNAc(b1-6)]Man(a1-6)[Neu5Ac(a2-6)Gal(b1-4)GlcNAc(b1-2)Man(a1-3)][GlcNAc(b1-4)]Man(b1-4)GlcNAc(b1-4)GlcNAc
# Procedure, shortened: as §1
# [40] = biological target: Neu5Ac(a2-6)Gal(b1-4)GlcNAc(b1-3)Gal(b1-3)GlcNAc
# Procedure, shortened: as §1
# [41] = biological target: Neu5Ac(a2-6)Gal(b1-4)GlcNAc(b1-3)Gal(b1-4)GlcNAc
# Procedure, shortened: as §1
# [42] = biological target: Neu5Ac(a2-6)Gal(b1-4)GlcNAc(b1-3)Gal(b1-4)GlcNAc(b1-2)Man(a1-3)[Neu5Ac(a2-6)Gal(b1-4)GlcNAc(b1-3)Gal(b1-4)GlcNAc(b1-2)Man(a1-6)]GalNAc
# Procedure, shortened: as §1
binder,measurement,setting,value
"CrataBL (Crataeva tapia), C0HJA4 (protein) AILTGVPYYILPSTSRAGFSPDNLRKNTSQLSCPLDLITQLRFPRRIGVPVIFTPQNSSLKVVPLSHNLNIHTCSDLWFCPESKIWTVKSSLTHGGSVVTTGGTFRSLGSWFRIERHGDSYKLVHCPRGSTPCRDVGIETVGGGGRRYLAPRDRPLAVRFTRASG",glycan array binding signal (z-score),[1],0.163
same,glycan array binding signal (z-score),[2],-0.258
same,glycan array binding signal (z-score),[3],0.274
same,glycan array binding signal (z-score),[4],-0.225
same,glycan array binding signal (z-score),[5],2.07
same,glycan array binding signal (z-score),[6],-0.458
same,glycan array binding signal (z-score),[7],-0.243
same,glycan array binding signal (z-score),[8],-0.448
same,glycan array binding signal (z-score),[9],0.187
same,glycan array binding signal (z-score),[10],-0.51
same,glycan array binding signal (z-score),[11],0.295
same,glycan array binding signal (z-score),[12],0.218
same,glycan array binding signal (z-score),[13],0.468
same,glycan array binding signal (z-score),[14],1.2
same,glycan array binding signal (z-score),[15],0.608
same,glycan array binding signal (z-score),[16],-0.414
same,glycan array binding signal (z-score),Neu5Ac(a2-3)GalNAc,0.523
same,glycan array binding signal (z-score),[17],-0.087
same,glycan array binding signal (z-score),[18],-0.39
same,glycan array binding signal (z-score),[19],-0.447
same,glycan array binding signal (z-score),[20],0.189
same,glycan array binding signal (z-score),[21],0.161
same,glycan array binding signal (z-score),Neu5Ac(a2-6)Gal,0.67
same,glycan array binding signal (z-score),[22],-0.52
same,glycan array binding signal (z-score),Neu5Ac(a2-6)Gal(b1-4)Glc,0.243
same,glycan array binding signal (z-score),[23],-0.345
same,glycan array binding signal (z-score),[24],-0.335
same,glycan array binding signal (z-score),[25],0.174
same,glycan array binding signal (z-score),[26],-0.271
same,glycan array binding signal (z-score),[27],0.061
same,glycan array binding signal (z-score),[28],-0.287
same,glycan array binding signal (z-score),[29],0.115
same,glycan array binding signal (z-score),[30],-0.44
same,glycan array binding signal (z-score),[31],-0.461
same,glycan array binding signal (z-score),[32],-0.255
same,glycan array binding signal (z-score),[33],0.323
same,glycan array binding signal (z-score),[34],0.067
same,glycan array binding signal (z-score),[35],-0.297
same,glycan array binding signal (z-score),[36],-0.041
same,glycan array binding signal (z-score),[37],-0.075
same,glycan array binding signal (z-score),[38],-0.226
same,glycan array binding signal (z-score),[39],-0.07
same,glycan array binding signal (z-score),[40],-0.22
same,glycan array binding signal (z-score),[41],-0.153
same,glycan array binding signal (z-score),[42],0.403
